Experimental data: PubChem BioAssay AID1030 (National Center for Advancing Translational Sciences (NCATS), 2008)
Screen size: about 220,000 compounds; about 16,000 (7.3%) were called active. The inconclusive results got no clear call from the source; some entries with a clear call stand among them for comparison. Calls follow the shape of the dose curve; as a rule, active = well fitted inhibition curve with a large enough effect (not every such curve was filed as active); inconclusive = small, poorly fitted or top-dose-only effect, or another doubt; inactive = no such curve, though single readings can be large or run the other way. A potency beside an inconclusive call is a rough fit, not a confirmed value.

Each molecule was assayed against Aldehyde dehydrogenase 1A1 (Homo sapiens) (UniProt P00352) (assay: qHTS Assay for Inhibitors of Aldehyde Dehydrogenase 1 (ALDH1A1)). Conditions: Purified ALDH1A1, NADH fluorescence, propionaldehyde substrate; series mostly up to 75.3 µM; activity, negative = inhibition: at the top concentration.
UniProt P00352, sequence (P00352 whole entry, looked up): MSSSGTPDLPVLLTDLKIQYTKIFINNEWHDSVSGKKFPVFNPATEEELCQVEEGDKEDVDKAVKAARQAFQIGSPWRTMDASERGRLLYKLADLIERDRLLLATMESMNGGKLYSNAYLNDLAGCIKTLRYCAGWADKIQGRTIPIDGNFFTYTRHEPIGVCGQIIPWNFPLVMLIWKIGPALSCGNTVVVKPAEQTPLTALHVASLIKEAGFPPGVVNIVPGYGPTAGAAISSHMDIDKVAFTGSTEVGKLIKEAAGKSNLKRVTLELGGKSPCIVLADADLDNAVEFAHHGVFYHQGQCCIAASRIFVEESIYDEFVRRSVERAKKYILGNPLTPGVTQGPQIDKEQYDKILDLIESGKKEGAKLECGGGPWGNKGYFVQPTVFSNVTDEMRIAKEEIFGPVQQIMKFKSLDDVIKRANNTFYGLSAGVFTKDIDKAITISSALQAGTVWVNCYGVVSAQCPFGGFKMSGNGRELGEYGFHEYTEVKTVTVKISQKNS

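For activity, negative = inhibition in this document: plate controls were no enzyme wells and a reference inhibitor.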
Potency is read from the fitted curve at half-maximal effect; tags tell the direction and shape of the fitted curve.

Potency, active:
Cc1ccc(S(=O)(=O)NCC2CCC(C(=O)NCc3ccco3)CC2)cc1 (stereo not drawn) 2.82 µM
COC(=O)C1CCN(C(=O)COc2cc3sc(C)nc3c3sccc23)CC1 11.2 µM
O=[N+]([O-])c1cc([N+](=O)[O-])c2cccnc2c1O 25.1 µM
CC(C)c1ccc(N(C(=O)c2csnn2)C(C(=O)NC(C)(C)C)c2cccnc2)cc1 (stereo not drawn) 0.708 µM
CCSc1n[nH]c(=S)s1 1.78 µM
CC1=C(C(=O)Nc2ccccn2)C(c2ccc(Cl)cc2Cl)NC(=S)N1 (stereo not drawn) 2.51 µM
COc1ccc2cc(CN(CCc3ccccc3)Cc3nnnn3CC3CCCO3)c(=O)[nH]c2c1 (stereo not drawn) 0.282 µM
Cn1c(=O)cc(OCCCC(=O)NCc2ccco2)c2ccccc21 20 µM
CC(=O)C1=C(O)C(=O)N(c2cccnc2)C1c1ccc([N+](=O)[O-])cc1 (stereo not drawn) 20 µM

Potency, inconclusive:
CCOC(=O)c1cc2c(=O)n3ccccc3nc2n(C(C)C)c1=NC(=O)c1ccco1 31.6 µM [inhibitor, partial curve]
C=CCN=Cc1sc2ccc(OCC)cc2c1O 28.2 µM [inhibitor, single point]
c1csc(CNc2ncncc2-c2ccoc2)c1 28.2 µM [inhibitor, single point]
COc1ccc(C2C=C(Nc3ccccc3)C(=O)N2c2ccccc2)cc1OC (stereo not drawn) 39.8 µM [inhibitor, single point]
O=C(Nc1nc2ccc(S(=O)(=O)N3CCCCC3)cc2s1)C1CCCO1 (stereo not drawn) 39.8 µM [inhibitor, single point]
COc1cc(/C=C(/C#N)c2ccccc2F)ccc1OCc1ccccc1 31.6 µM [inhibitor, single point]
COCCNC(=O)/C(C#N)=C/c1cc(C)n(C2CCCCC2)c1C 22.4 µM [inhibitor, single point]
COc1ccccc1C(=O)Nc1ccc2oc(-c3ccc(F)cc3)nc2c1 35.5 µM [inhibitor, single point]
CCCCN=Cc1sc2ccc(OCC)cc2c1O 15.8 µM [inhibitor, partial curve]
Cc1ccccc1-c1nnn(CC(=O)c2ccc(S(=O)(=O)N3CCCC3)cc2)n1 17.8 µM [inhibitor, single point]
CC(OC(=O)CCCOc1ccccc1)C(=O)NC(N)=O (stereo not drawn) 39.8 µM [inhibitor, single point]
COC(=O)C1=C(C)Nc2sc(C(N)=O)c(N)c2C1c1ccncc1 (stereo not drawn) 35.5 µM [inhibitor, partial curve]
COCCNC(=O)CN1CCN(C(c2ccccc2)c2ccccc2)CC1 39.8 µM [inhibitor, single point]
O=C1CSc2ccc(C(=O)NCC(c3ccco3)N3CCCCC3)cc2N1 (stereo not drawn) 39.8 µM [inhibitor, single point]
COc1ccc(S(=O)(=O)NCC(c2cccnc2)N2CCN(C)CC2)cc1C (stereo not drawn) 17.8 µM [inhibitor, single point]
O=C(Cn1nnc(-c2ccccc2)n1)N/N=C/c1cccc([N+](=O)[O-])c1 2.51 µM [inhibitor, full curve]
Cc1ccc(O)c(NC(=O)c2noc3c2CCc2ccccc2-3)c1 39.8 µM [inhibitor, single point]
Cc1sc2nc(SCC(=O)NCCOCCO)n(C)c(=O)c2c1C 28.2 µM [inhibitor, single point]
COc1ccc(-c2nn(-c3ccccc3)cc2/C=C(\C#N)C(N)=O)cc1[N+](=O)[O-] 3.16 µM [inhibitor, partial curve]
CN=C1SC(CC(=O)Nc2ccc(N3CCOCC3)cc2)C(=O)N1C (stereo not drawn) 39.8 µM [inhibitor, single point]
Cc1oc(-c2cccs2)nc1CN1CCN(CCC(C)C)C(CCO)C1 (stereo not drawn) 39.8 µM [inhibitor, single point]
COCCNC(=O)c1c[nH]c2ccc(S(=O)(=O)N3CCC4(CC3)OCCO4)cc2c1=O 39.8 µM [inhibitor, single point]
O=C1C2C3C=CC(C3)C2C(=O)N1CCCCN1C(=O)C2C3C=CC(C3)C2C1=O (stereo not drawn) 25.1 µM [inhibitor, partial curve]
COc1ccc(-c2cc3nc4c(c(=O)n3[nH]2)CCC4)cc1 14.1 µM [inhibitor, partial curve]
CCOc1ccc(N(Cc2cc3ccc(C)cc3[nH]c2=O)S(C)(=O)=O)cc1 14.1 µM [inhibitor, partial curve]

activity, negative = inhibition, inactive:
Cc1cc(-c2n[nH]c(=S)n2/N=C/c2ccc(Br)s2)n[nH]1 -15.3%
CC(O)c1n(C)c(Cl)c[n+]1C (stereo not drawn) 6.43%
CS(=O)(=O)c1cnc(-c2ccccc2)nc1-c1ccc(Cl)c(Cl)c1 -0.632%
CCc1ccc(Oc2coc3cc(OC(=O)c4cc5ccccc5oc4=O)ccc3c2=O)cc1 1.39%
CCCCNC(=O)c1ccc(Cc2nc3ccccc3[nH]2)cc1 -3.42%
CC1(C)CC2CC(C)(CN2C(=O)C23CCC(C)(C(=O)O2)C3(C)C)C1 (stereo not drawn) 5.23%
Cn1nc(-c2ccc(C(=O)N3CCN(CCO)CC3)cc2)c2ccccc2c1=O -4.14%
CC(=O)OCC(=O)[C@@]1(O)CCC2C3CCC4=CC(=O)C=CC4(C)C3C(O)C[C@]21C (stereo partly drawn) -8.63%
CCOC(=O)c1ccc(NC(=O)CSc2nc3c(c(=O)n2-c2ccccc2OC)SCC3)cc1 -12.6%
CCOCCCNC(=O)C(c1ccc(OC)cc1)N(Cc1cccs1)C(=O)CNC(C)=O (stereo not drawn) -5.08%
CCOC(=O)c1ccc(NC(=O)CSc2nnnn2C2CCCCC2)cc1 11.3%
Cc1ccc2c(c1)/C(=N/OC(=O)c1ccc(F)cc1)CCS2 3.2%
CCOC(=O)Cc1csc(NC(=O)CSc2nnc(-c3cccnc3)n2Cc2ccco2)n1 -6.11%
Cc1onc(-c2c(Cl)cccc2Cl)c1C(=O)N1CCc2ccccc2C1 8.34%
